Data reported in patent US8273855 (JIANGSU NOVAVAC BIO TEC, dated 2012).

Molecular target: T1, F3 on F3-transfected CHO cells (UniProt P12960 21-1001)
T1 construct: whole, on cells; also called F3-CHO; F3-expressing CHO cells
T1 sequence (looked up): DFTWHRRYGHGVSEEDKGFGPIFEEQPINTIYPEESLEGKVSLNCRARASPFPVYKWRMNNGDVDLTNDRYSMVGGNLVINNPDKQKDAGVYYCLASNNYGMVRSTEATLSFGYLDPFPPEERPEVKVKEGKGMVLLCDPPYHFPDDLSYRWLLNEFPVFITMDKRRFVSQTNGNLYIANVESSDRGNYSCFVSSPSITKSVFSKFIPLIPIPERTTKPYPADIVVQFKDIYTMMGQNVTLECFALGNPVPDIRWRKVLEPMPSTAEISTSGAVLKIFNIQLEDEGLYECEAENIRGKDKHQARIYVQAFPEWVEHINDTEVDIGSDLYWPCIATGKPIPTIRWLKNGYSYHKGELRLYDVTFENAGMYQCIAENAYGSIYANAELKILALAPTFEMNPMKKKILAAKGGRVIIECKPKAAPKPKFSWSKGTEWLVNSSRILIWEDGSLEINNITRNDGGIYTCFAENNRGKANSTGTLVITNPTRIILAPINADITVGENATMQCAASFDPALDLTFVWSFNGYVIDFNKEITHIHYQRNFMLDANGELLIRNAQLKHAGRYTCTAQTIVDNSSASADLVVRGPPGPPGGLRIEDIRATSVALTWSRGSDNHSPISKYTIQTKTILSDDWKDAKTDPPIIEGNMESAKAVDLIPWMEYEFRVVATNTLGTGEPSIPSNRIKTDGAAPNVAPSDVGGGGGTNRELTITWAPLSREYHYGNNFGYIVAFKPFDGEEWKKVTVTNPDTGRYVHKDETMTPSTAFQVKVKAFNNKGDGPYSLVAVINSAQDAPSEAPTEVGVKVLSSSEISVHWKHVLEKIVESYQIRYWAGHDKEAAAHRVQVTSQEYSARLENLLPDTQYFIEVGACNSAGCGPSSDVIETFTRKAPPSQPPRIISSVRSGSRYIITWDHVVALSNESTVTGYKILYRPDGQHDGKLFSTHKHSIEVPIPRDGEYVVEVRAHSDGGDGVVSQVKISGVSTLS
Assay: cell adhesion assay, F3-CHO cells on coated substrate

B1: GST (other)
chain: not shown
notes: Control; also called glutathione S-transferase
  binding result: no binding (tested: spots of 1.5 µl of 5 µM GST)
